Test results from PubChem BioAssay (NCI).
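Grown in 96-well plates, cells were treated for 48 hours with each compound at five concentrations. Insufficient inhibition: endpoint recorded as highest concentration tested. At the GI50, growth is halved. TGI: total growth inhibition.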

System: NCI-H322M lung
Experiment: NCI-60 cell line screen, 48 h

Row | SMILES | TGI | GI50
1 | COc1cc(C2S/C(=C/c3ccccc3)C(=O)N2c2ccccn2)cc(OC)c1OC (configuration not stated) | > 100 µM | 
2 | Cc1cccc(/C=C2\CCCCCC2=O)c1 | > 100 µM | 
3 | NCCNc1ncnc2ccc(Cl)cc12 | > 100 µM | 
4 | C(=NCCN=Cc1cccc2ccccc12)c1cccc2ccccc12 | > 100 µM | 
5 | NNC(=O)N/N=C1/C(=O)N(c2ccc(Cl)c(Cl)c2)C(=O)C(=O)C1c1nc2ccccc2o1 (configuration not stated) | > 100 µM | 
6 | COc1ccc(CNC(=O)c2c(C)n([O-])c3cc(F)c(F)cc3[n+]2=O)cc1 | 29 µM | 15.5 µM
7 | Cc1ccc2nnc(NS(=O)(=O)c3cc(C)c(Cl)cc3S)n2n1 | > 100 µM | 
8 | COc1ccc([Se]c2ccc(OC)cc2)cc1 | > 100 µM | 
9 | Cn1c2c(c3c(=O)[nH]ncc31)CCCc1ccccc1-2 | > 100 µM | 
10 | NNC(=O)CSc1nnc(CCCCCCCCc2nnc(SCC(=O)NN)o2)o1 | > 100 µM | 
11 | O=C1OC(=O)C2C1C1C(c3ccccc3)=C(c3ccccc3)C2(O)C2C(=O)OC(=O)C12 (configuration not stated) | > 100 µM | 
12 | COC(=O)C(=O)C(C(=O)C(=O)Nc1nc(=S)[nH][nH]1)c1nc2ccc([N+](=O)[O-])cc2[nH]c1=O (configuration not stated) | > 100 µM | 
13 | COc1cc2c(cc1OC)C(=O)N1CCCC1C(=O)S2 (configuration not stated) | > 100 µM | 
14 | CN1CCN(Cc2ccc(NC(=O)c3cncc(C#Cc4ncc5ccccn45)c3)cc2C(F)(F)F)CC1 | 6.42 µM | 2.41 µM
15 | COc1ccc2c(c1)NC(=O)CN2c1nc(C)nc2ccccc12 | > 100 µM | 0.000904 µM
16 | CC(=O)Nc1nc(C)c(-c2cc3c(c(S(C)(=O)=O)c2)C(=O)N([C@@H](C)C2CC2)C3)s1 | > 100 µM | 29.4 µM
17 | C=[N+](CNC(=O)CNC(=O)C(Cc1ccccc1)NC(=O)OC(C)(C)C)C(=O)CNC(=O)C(Cc1ccccc1)NC(=O)OC(C)(C)C (configuration not stated) | > 100 µM | 
18 | COc1ccc(-c2c(C#N)cnc(N)c2-c2nc3cc(C)c(C)cc3[nH]2)cc1 | > 100 µM | 15.5 µM
19 | COc1cc(OC)c2c(c1Cl)O[C@]1(C2=O)C(OCc2ccccc2)=CC(=O)C[C@H]1C | > 100 µM | 7.15 µM
20 | NC(C(=O)O)c1ccc(C(=O)O)cc1 (configuration not stated) | > 100 µM | 
21 | Cc1ccc2c(c1)C/C(=C\c1ccccc1C(=O)O)C2=O | > 100 µM | 
22 | O=C(CSCC(=O)N/N=C/c1ccncc1)N/N=C/c1ccncc1 | > 100 µM | 
23 | CCOC(=O)c1c(CN2CCOCC2)n(Cc2ccccc2)c2c1cc(O)c1nc(C)c(C)nc12 | > 100 µM | 
24 | COn1cc(C(=O)N=C(SC)SC)c2ccccc21 | 43.6 µM | 16.3 µM

Row | SMILES | TGI | GI50
25 | CCOc1cc[n+](C(=C=[N-])C#N)cc1 | > 100 µM | 
26 | CN(C)c1ccc(/C=N/NC(=O)c2cnc3ccccc3c2)cc1 | > 100 µM | 
27 | CC1(C)N=C(N)N=C(N)N1CCCCc1ccccc1 | > 100 µM | 
28 | COc1ccc2c(c1)C(=O)c1c-2n(CCCNCCO)c(=O)c2cc([N+](=O)[O-])ccc12 | 1.7 µM | 0.021 µM
29 | CC(=O)CC(=O)ON(C)C(=O)Cc1ccccc1 | > 100 µM | 
30 | N=c1oc2ccc(Cl)cc2cc1C(=O)NC1CCCCC1 | > 100 µM | 
31 | COC(=O)c1ccccc1Nc1ccccc1C(=O)OC | > 100 µM | 
32 | CC(C)[Si](OC1=CCC[C@H]2NC(=O)[C@@H](Cc3ccc([N+](=O)[O-])cc3)[C@@]12C)(C(C)C)C(C)C | 27.9 µM | 
33 | C[Si](C)(C)C#CCOC=C1CC1 | > 100 µM | 
34 | Nc1ncnc2c1ncn2C1OC(C(=O)OCCO)C(O)C1O (configuration not stated) | > 100 µM | 
35 | N#C/C=C\c1ccc(-c2cc(C(F)(F)F)cc(C(F)(F)F)c2)o1 | > 100 µM | 
36 | N#CC1C(=O)NC(=O)C(C#N)C1c1ccc(Cl)c(Cl)c1 (configuration not stated) | > 100 µM | 
37 | CC1OC(n2cnc3c(N)nc(Cl)nc32)C(C)(O)C1O (configuration not stated) | > 25 µM | 
38 | COc1ccccc1NC1=NCC(C)S1 (configuration not stated) | > 100 µM | 
39 | CNCC1CCn2c(c(C3=C(c4cn(C)c5ccccc45)C(=O)NC3=O)c3ccccc32)C1 (configuration not stated) | 12.1 µM | 4.14 µM
40 | CCCC(CCC)C(=O)O | > 20000 µM | > 100 µM
41 | Nc1ncnc2c1ncn2COC/C=C/I | > 100 µM | 
42 | NC(=S)N=Nc1c(O)[nH]c2ccccc12 | > 1000 µM | 274 µM
43 | CN(C)c1ccc(/C=c2\sc3nnc(Cc4ccccc4)n3c2=O)cc1 | > 100 µM | > 100 µM
44 | COc1cccc(-c2cc(=O)c3cc(N4CCCC4)ccc3[nH]2)c1 | > 10 µM | 
45 | O=C1C=C(OCC=C(Cl)Cl)C(=O)c2ccccc21 | > 100 µM | > 100 µM
46 | O=c1[nH]c(=S)c2[nH]c(=O)n(-c3ccccc3)c2[nH]1 | > 100 µM | 
47 | Nc1nc(Cl)c2ncn(Cc3ccc(-c4ccc(CCl)cc4)cc3)c2n1 | 38.4 µM | 14.7 µM
48 | CC(=O)Nc1ccccc1S(=O)c1ccccc1 (configuration not stated) | > 100 µM | 
